PubChem BioAssay AID1745845 (National Center for Advancing Translational Sciences (NCATS), 2022)
The campaign covered roughly 360,000 compounds. About 2,600 (0.72%) were called active. This list was built around the results that the source calls inconclusive (neither active nor inactive); the mix of calls is not that of the screen. Calls come from the whole dose curve; as a rule, active = well fitted inhibition curve with a large enough effect; inconclusive = small, poorly fitted or top-dose-only effect; inactive = no such curve, though single readings can be large or run the other way. Potencies beside an inconclusive call are fits to weak or partial responses and may not hold up.

Experiment: Primary qHTS for Inhibitors of ATXN expression; note: nearly all actives have a fitted effect of over 55% in size
Conditions: HEK-293 ATXN2-luciferase reporter, luminescence, 24 h; activity change, negative = inhibition: at 57 µM (top of the series)
How it was run: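 qHTS (up to 57 uM final) was run with 24 h compound exposure of reporter cells at 37 °C. Each well was multiplexed: SteadyGlo luminescence measured ATXN2-luciferase expression after a fluorogenic Gly-Phe-AFC viability readout (25 uM final).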
% is set by controls: 0 for no effect and ±100 for the full control effect; potency is the fitted concentration of half-maximal effect; tags give direction and shape of the fitted curve.

| Structure (SMILES) | Potency | activity change, negative = inhibition |
| --- | --- | --- |
| NNC(=O)/C(=N/Nc1ccccc1)S(=O)(=O)c1ccc(Cl)cc1 | active: 14.1 µM | – |
| O=C(NC(=S)N1CCc2ccccc21)c1ccccc1 | inconclusive: 17.8 µM [inhibitor, partial curve, poor fit] | – |
| C=CCOc1ccccc1C(=O)/C=C1/C(=O)Nc2ccccc21 | – | inactive: -13.9% |
| CCOC(=O)c1cccc(Nc2nc(-c3cccnc3)nc3ccccc23)c1 | inconclusive: 31.6 µM [inhibitor, single point] | – |
| Cc1ccc(-n2nc3c([n+]2[O-])CCc2c-3no[n+]2[O-])cc1 | inconclusive: 20 µM [inhibitor, partial curve] | – |
| CCOCCOc1cc(NCc2ccccc2)c2ncn(C(C)C)c2c1 | inconclusive: 22.4 µM [inhibitor, single point] | – |
| CCN(CC)C(=O)[C@H]1C[C@H](CC(=O)NCc2ccc(OC)c(OC)c2)C(=O)N2CCc3c([nH]c4cc(-c5ccco5)ccc34)[C@]12C | inconclusive: 28.2 µM [inhibitor, single point] | – |
| Cc1cc2nc(-c3ccccc3Br)n(/C=C(\c3ccccc3)n3c(=O)[nH]c4ccccc43)c2cc1C | inconclusive: 39.8 µM [inhibitor, single point] | – |
| CN[C@@H]1CC[C@H](c2ccc(Cl)c(Cl)c2)c2ccccc21 | inconclusive: 17.8 µM [inhibitor, single point] | – |
| Cc1ccc(NC(NC(=O)c2cccs2)C(Cl)(Cl)Cl)cc1C (stereo not given) | inconclusive: 25.1 µM [inhibitor, partial curve, poor fit] | – |
| CCOC(=O)C1CCN(c2csc3ccc(C)cc3c2=O)CC1 | – | inactive: 18.8% |
| CC(=O)C[C@H]1c2cc(C(F)(F)F)ccc2S(=O)(=O)N1C1CCCCC1 | – | inactive: -4.51% |
| O=C1c2cccc3cccc(c23)C(=O)N1CCN1CCN(CC(O)COc2ccc3ccccc3c2)CC1 (stereo not given) | inconclusive: 39.8 µM [inhibitor, single point] | – |
| O=C(N/N=C/c1ccccc1)c1n[nH]c2c1CCCC2 | inconclusive: 17.8 µM [inhibitor, partial curve] | – |
| CCOC(=O)N/N=C\c1ccc([N+](=O)[O-])o1 | inconclusive: 6.31 µM [inhibitor, partial curve, poor fit] | – |
| COc1ccc(OC)c(NC(=O)c2ccc3c(=O)n(CCc4ccccc4)c(=S)[nH]c3c2)c1 | – | inactive: -17.8% |
| CC(C)S(=O)(=O)c1csc(NC(=O)Nc2ccc(Cl)cc2)c1 | – | inactive: -19% |
| Cc1ccccc1-c1nc(CS(=O)(=O)CC(=O)Nc2c(C)cccc2C)c(C)o1 | inconclusive: 35.5 µM [inhibitor, single point] | – |
| COc1cccc(C(=O)NCCS(=O)(=O)NCc2ccc3c(c2)OCO3)c1 | – | inactive: 2.23% |
| CCOc1ccccc1N(C)C(=O)c1cc(S(=O)(=O)NCc2ccc(C)cc2)ccc1F | inconclusive: 39.8 µM [inhibitor, single point] | – |
| O=S(=O)(Nc1ccc2c(c1)nc1n2CCOC1)c1ccc(Cl)cc1 | – | inactive: -15.5% |
| COc1ccc(Br)cc1/C=c1\sc2nc(-c3ccco3)nn2c1=O | – | inactive: 7.08% |
| Cc1ccc(C)c(NC(=O)Cn2cc(S(=O)(=O)N3CCCC3)c(S(=O)(=O)N3CCCC3)c2)c1 | – | inactive: 7.47% |
| O=C(CSCc1ccc(Cl)cc1)Nc1cc([N+](=O)[O-])ccc1O | inconclusive: 20 µM [inhibitor, partial curve, poor fit] | – |

| Structure (SMILES) | Potency | activity change, negative = inhibition |
| --- | --- | --- |
| O=C(Nc1ccc2nc3n(c(=O)c2c1)CCCC3)c1cc([N+](=O)[O-])ccc1F | active: 25.1 µM | – |
| Cn1c(=O)oc2cc(NC(=O)CCl)ccc21 | inconclusive: 22.4 µM [inhibitor, partial curve, poor fit] | – |
| O=C(Cn1c2ncccc2c(=O)n1-c1ccccc1)Nc1cccc(C(F)(F)F)c1 | inconclusive: 35.5 µM [inhibitor, single point] | – |
| O=C(CCC1CCCC1)c1c(O)c2ccccc2oc1=O | inconclusive: 37.7 µM [inhibitor, single point] | – |
| CN(CCOc1ccc(Cl)cc1)CC(=O)Nc1ccc(OC(F)F)cc1 | – | inactive: -21.8% |
| NC(Cc1ccc(C(F)(F)F)cc1)c1csc(NC(=O)NCCc2ccccc2)n1 (stereo not given) | inconclusive: 39.8 µM [inhibitor, single point] | – |
| Clc1cccc(N2CCN(c3nc4ccccc4c4nc(-c5ccccc5)nn34)CC2)c1 | – | inactive: 12.4% |
| Oc1c(Br)cc(Br)cc1/C=N/c1nc2c(s1)CCCC2 | inconclusive: 17.8 µM [inhibitor, partial curve, poor fit] | – |
| C=CCOc1ccc(CNc2ccc3[nH]c(=O)[nH]c3c2)cc1OC | inconclusive: 37.7 µM [inhibitor, single point] | – |
| C/C(=N\NC(=O)c1c(C)nc2ccccn12)c1ccc(O)cc1O | inconclusive: 3.98 µM [inhibitor, partial curve, poor fit] | – |
| Clc1ccc(SCc2cc(N3CCOCC3)nc(-c3ccccn3)n2)cc1 | active: 6.31 µM | – |
| CC(C)C#Cc1cnc2c(c1)C(=O)N([C@H](C)CO)C[C@@H](C)[C@H](CN(C)C(=O)Nc1ccccc1F)O2 | – | inactive: 9.15% |
| Cc1ccc(-c2csc(=S)[nH]2)cc1 | – | inactive: -15.4% |
| Cc1cc(C)c2c(=O)n3c(nc2c1)C(Cc1ccc(O)cc1)NC(=O)c1cc2ccccc2cc1-3 (stereo not given) | – | inactive: -36.1% |
| Cc1ccc(Cc2cnc(N3C(=N)SC(c4ccccc4)C3=O)s2)cc1 (stereo not given) | – | inactive: -22.8% |
| Cc1ccc(CN2C(=O)CC(c3ccc(Cl)cc3)c3c(C)nn(-c4nc(C)cc(C)n4)c32)cc1 (stereo not given) | inconclusive: 25.1 µM [inhibitor, single point] | – |
| Fc1ccc(-c2nc3cnccn3c2NC2CCCC2)cc1 | – | inactive: -13.8% |
| O=C(O)CCn1cc(/C=C/C(=O)c2ccc(Cl)cc2)c(-c2cccc(Br)c2)n1 | inconclusive: 31.6 µM [inhibitor, single point] | – |
| Cc1ccc(NC(=O)CN2C(=O)S/C(=C\c3cc(C)n(C)c3C)C2=O)cc1 | – | inactive: -18.1% |
| Cc1onc(-c2ccccc2)c1C(=O)Nc1ccc(S(=O)(=O)NC(C)(C)C)cc1 | inconclusive: 23.8 µM [inhibitor, partial curve, poor fit] | – |
| COc1cc(C(=O)Oc2ccccc2/C=N/NC(=O)c2ccc(Cl)cc2Cl)cc(OC)c1OC | inconclusive: 25.1 µM [inhibitor, single point] | – |
| CCOC(=O)CSc1nc2cc(OC)ccc2cc1C#N | – | inactive: 87.8% |
| C#Cc1ccccc1OCCCN1CCC(C(O)(c2ccccc2)c2ccccc2)CC1 | active: 31.6 µM | – |
| CCCNC(=O)COC(=O)c1ccccc1C(=O)c1ccc(Cl)c([N+](=O)[O-])c1 | inconclusive: 39.8 µM [inhibitor, single point] | – |

| Structure (SMILES) | Potency | activity change, negative = inhibition |
| --- | --- | --- |
| Cc1cccc(CN2C(=O)NC(c3ccccc3)(c3ccccc3)C2=O)c1 | inconclusive: 39.8 µM [inhibitor, single point] | – |
| COC1CCN(Cc2cn(Cc3ccccc3)nc2-c2cc3ccccc3o2)CC1 | inconclusive: 15.8 µM [inhibitor, single point] | – |
| C#CCC(Cc1cnc2nc(N)nc(N)c2n1)c1ccc(C(=O)N[C@@H](CCC(=O)O)C(=O)O)cc1 (stereo not given in full) | active: 0.544 µM | – |
| Cc1ccc(S(=O)(=O)NC(C)(C)C)cc1C(=O)OC(C)C(=O)NC1CC1 (stereo not given) | – | inactive: 5.8% |
| Cc1cc(SCC(=O)NCc2ccccc2Cl)nc(=O)[nH]1 | – | inactive: -4.42% |
| Cc1ccc2cccc(NC(=S)NC(=O)c3ccccc3)c2n1 | – | inactive: 14.4% |
| CSCCC(NC(=O)c1ccc(Cl)cc1Cl)C(=O)NNC(=O)c1ccncc1 (stereo not given) | – | inactive: 11.8% |
| Cc1ccc(C(=O)Nc2ccc(Br)c(C(F)(F)F)c2)cc1 | – | inactive: -24.7% |
| COc1ccc(Cl)cc1CC1(C)C(=O)Nc2ccc(-c3ccccc3OC)cc21 (stereo not given) | inconclusive: 35.5 µM [inhibitor, single point] | – |
| COc1ccccc1C(=O)NCC(c1cccs1)N1CCc2ccccc21 (stereo not given) | – | inactive: 4.78% |
| FC(F)(F)c1cnc(N2CCN(C(=S)NCc3ccccc3)CC2)c(Cl)c1 | inconclusive: 39.8 µM [inhibitor, single point] | – |
| NC(=O)C(=O)N/N=C/c1ccc([N+](=O)[O-])o1 | – | inactive: -10.7% |
| CCC(=O)Nc1c(C#N)c2nc3ccccc3nc2n1-c1ccccc1C | inconclusive: 28.2 µM [inhibitor, single point] | – |
| Clc1ccc2ncc(-c3cccc(NC4CNC4)n3)n2c1 | inconclusive: 38.5 µM [inhibitor, single point] | – |
| Cc1cnc(C(=O)Nc2ccc(N3CCN(C(=O)OC(C)(C)C)CC3)cc2)cn1 | inconclusive: 5.01 µM [inhibitor, full curve] | – |
| COc1ccccc1C1CC(c2c(-c3ccccc3)c3cc(Cl)ccc3[nH]c2=O)=NN1S(C)(=O)=O (stereo not given) | inconclusive: 39.8 µM [inhibitor, single point] | – |
| CCN(CC)CCC(c1ccc2c(c1)OCO2)c1c(OC)cc(OC)c2c(-c3ccccc3)cc(=O)oc12 (stereo not given) | active: 31.6 µM | – |
| Cc1ccc2nc3n(c(=O)c2c1)-c1cc2ccccc2cc1C(=O)NC3Cc1ccc(O)cc1 (stereo not given) | inconclusive: 10 µM [inhibitor, partial curve, poor fit] | – |
| COc1cc2nc(-c3cc(F)ccc3O)nc(N[C@@H]3CNC[C@@H]3C(C)(C)O)c2cc1OC | active: 21.7 µM | – |
| CCN(CC)CCN(C(=O)C1CCCCC1)c1nc2cc3c(cc2s1)OCO3 | inconclusive: 31.6 µM [inhibitor, partial curve, poor fit] | – |
| CC1(NC(=O)c2ccccc2)CCN(CCCc2ccccc2)C1=O (stereo not given) | inconclusive: 28.2 µM [inhibitor, partial curve, poor fit] | – |
| O=C(Nc1ccc(F)cc1)C1CCC(CNc2c(N3CCCCC3)c(=O)c2=O)CC1 (stereo not given) | inconclusive: 12.6 µM [inhibitor, partial curve, poor fit] | – |
